Out of some 16,000 compounds screened, about 120 (0.75%) were called active. Not shown: some 4% with an inconclusive outcome. The call rests on the fitted dose curve; in most records, active means well fitted inhibition curve with a large enough effect; inconclusive means small, poorly fitted or top-dose-only effect; inactive means no such curve, though single readings can be large or run the other way. Some of the results follow.
Biological target: Rap guanine nucleotide exchange factor 3 (Homo sapiens) (UniProt O95398)
Test: Validation qHTS for antagonist of cAMP-regulated guanine nucleotide exchange factor 3 (EPAC1);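 further: plate controls were DMSO for no effect and ATA control for full effect; nearly all actives have a fitted effect of over 75% in size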
Conditions: EPAC1 Rap1B-BODIPY-GDP exchange, fluorescence; series mostly up to 150 µM; activity change, negative = inhibition: at the top concentration
Outline: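 Nucleotide exchange followed as fluorescence loss when BODIPY-GDP leaves Rap1B (480 nm excitation, 540 nm emission), read at 5 min intervals over 30 min. Reaction: 100 nM EPAC1, 250 nM RAP1B-BODIPY-GDP, 50 uM GDP; ATA and DMSO define normalization.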

UniProt O95398, sequence (O95398 whole entry, looked up): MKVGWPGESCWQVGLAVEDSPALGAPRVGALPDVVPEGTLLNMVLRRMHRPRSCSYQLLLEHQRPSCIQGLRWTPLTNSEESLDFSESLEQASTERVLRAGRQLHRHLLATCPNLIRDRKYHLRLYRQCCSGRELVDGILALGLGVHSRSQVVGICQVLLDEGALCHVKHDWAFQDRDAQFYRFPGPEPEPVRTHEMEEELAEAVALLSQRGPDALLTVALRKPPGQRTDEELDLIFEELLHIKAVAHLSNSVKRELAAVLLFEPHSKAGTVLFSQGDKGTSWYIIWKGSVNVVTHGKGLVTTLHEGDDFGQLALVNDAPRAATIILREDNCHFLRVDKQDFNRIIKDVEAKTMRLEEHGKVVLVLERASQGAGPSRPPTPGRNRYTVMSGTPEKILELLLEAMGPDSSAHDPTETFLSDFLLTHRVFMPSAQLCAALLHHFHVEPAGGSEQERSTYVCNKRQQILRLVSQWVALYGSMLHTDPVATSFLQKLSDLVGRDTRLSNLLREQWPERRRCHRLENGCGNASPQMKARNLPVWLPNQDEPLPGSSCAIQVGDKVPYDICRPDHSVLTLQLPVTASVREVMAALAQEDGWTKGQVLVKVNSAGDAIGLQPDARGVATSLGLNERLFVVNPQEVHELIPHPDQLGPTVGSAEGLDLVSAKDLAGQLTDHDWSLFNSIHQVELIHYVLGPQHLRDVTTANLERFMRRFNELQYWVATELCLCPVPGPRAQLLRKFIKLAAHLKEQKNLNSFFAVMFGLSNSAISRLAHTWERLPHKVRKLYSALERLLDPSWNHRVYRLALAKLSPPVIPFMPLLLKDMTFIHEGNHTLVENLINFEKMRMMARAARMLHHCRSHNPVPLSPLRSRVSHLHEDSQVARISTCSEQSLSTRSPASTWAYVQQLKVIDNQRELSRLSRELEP

Activity change, negative = inhibition, inactive:
CC(C)NC(=O)N1CC[C@@]2(CCCN(C(=O)c3ccco3)C2)C1 2.56%
Cc1cnc(CNc2ccnc(-c3cccnc3)n2)cn1 4.9%
COCCNc1ncnc2ccc(-c3ccc(N(C)C)cc3)cc12 15.1%
O=C(NCCN1CCOCC1)c1cnn(-c2nccc(-c3ccccc3C(F)(F)F)n2)c1C1CC1 8.89%
CCCCC/C(C=O)=C\c1ccccc1 12.8%
Clc1ccc2c(c1)C(N1CCNCC1)=Nc1ccccc1O2
O=C(Nc1ccccc1)N1CC[C@@]2(CCCN(C(=O)c3cc(C(F)(F)F)cc(C(F)(F)F)c3)C2)C1 -19.3%
CC(C)N=C(N)/N=C(\N)Nc1ccc(Cl)cc1 5.42% [at 75.8 µM]
C[C@@H](CN(C)C[C@H]1C(=O)O[C@@H]2C[C@@]3(C)CCC[C@]4(CO4)C3CC21)[C@H](O)c1ccccc1 (some centres not stated) 11.7%
O=C(Cn1ccnc1[N+](=O)[O-])NCc1ccccc1 14.5%
Cc1ncc2c(c1CNC(=O)c1ccccc1F)CCN(C(=O)c1[nH]c3ccc(Cl)cc3c1C)C2 -18.3%
O=C1c2ccccc2C(=O)C1c1ccccc1
CC1(C)OC2C[C@](O)(C(N)=O)C[C@H](O)[C@H]2O1 (some centres not stated) 11.3%
COc1ccc(S[C@@H](CCN2CC[C@H](O)CCC2=O)c2ccccc2)cc1 2.01%
CC(C)C[C@@H](CO)N1CCN(Cc2ccc(O)cc2)CCC1=O -19.5%
COCc1c(C(=O)N2CCC(N(C)C)C2)cnn1-c1ncc2c(n1)-c1ccccc1CCC2 (configuration not stated) 19.7%
COc1cccc(Nc2ncc3nc(CCc4ccccc4)c(=O)n(C4CC4)c3n2)c1 29.4%
COc1ccc(CN2CCOc3ccc(CN4CCC(O)(c5cccnc5)CC4)cc3C2)cc1OC 0.582%
O=C(O)CCc1nc(-c2ccccc2)c(-c2ccccc2)o1
N#CC[C@H](Cc1ccccc1)N1CC[C@@H](NC(=O)OCc2ccccc2)CCC1=O 9.14%
NCCCCC(=O)O
c1ccc(CC2=NCCN2)cc1
CC(=O)OC1CC2C(C)(C)C(O)CC[C@@]2(C)C2CC[C@@]3(C)C(c4ccoc4)OC(=O)C4OC43[C@]12C (some centres not stated) 1.06%
C/C=C(\C)C(=O)OC1C(OC(=O)C2(C)OC2C)c2cc3ccc(=O)oc3cc2OC1(C)C (configuration not stated) 8.01%
CC(C)(Oc1ccc(CCNC(=O)c2ccc(Cl)cc2)cc1)C(=O)O
OCCN1CCN(CCCN2c3ccccc3Sc3ccc(C(F)(F)F)cc32)CC1
O=C(c1ccncc1)N1CCC2(CCCN(c3ncccn3)C2)CC1 7.97%
Cc1cccnc1-c1cccc2c1OC(CNC(=O)C1CCCc3c1[nH]c1ccccc31)C2 (configuration not stated) -17.2%
CCCCCCCCCCCCCC(=O)N[C@H](C)[C@@H](O)c1ccccc1 -10.4% [at 15.3 µM]
CC(=O)OCC1OC(n2cnc3c(Cl)nc(Cl)nc32)C(OC(C)=O)C1OC(C)=O (configuration not stated) 15.8%
CC(CCC(=O)O)C1CCC2C3C(O)C[C@@H]4CC(O)CC[C@@]4(C)C3CC(O)[C@]12C (some centres not stated) 23.5%
Cc1noc(C)c1C(=O)N1CCC[C@@]2(CCN(c3ccccn3)C2)C1 7.82%
COCCn1c(=O)c(-c2cn(C)c3ccccc23)nc2cnc(N3CCNCC3)nc21 5.83%
COc1cc(=O)n2c(c1C(=O)N(C)Cc1nccs1)CCN(Cc1ccc(Cl)cc1)CC2 -1.82%
CC(C)(CNC(=O)c1cnn(-c2ncc3c(n2)-c2ccccc2CCC3)c1C1CC1)N1CCOCC1 -1.11%
COc1ccc(CNc2cc(-c3cccc(NS(C)(=O)=O)c3)ncn2)c(OC)c1 -7.81%
NC(=O)Nc1ccc(/C=C2\C=Cc3ccccc32)cc1 -3.26%
O=C(CCc1ccc(O)cc1)c1c(O)cc(O)cc1O[C@H]1OC(CO)C(O)C(O)C1O (some centres not stated) -1.23%
c1ccc(C(O[C@H]2CCCN(CCc3ccc4c(c3)OCO4)C2)c2ccccc2)cc1 -2.19%
COc1ccc(CN2CCC3(CC2)c2ccccc2[C@@H](NC(=O)c2ccco2)[C@@H]3OC)c(O)c1 12.2%
CN(C)c1ccc(/C=C2\CCCCC2=O)cc1 14.3%
COc1ccc(-c2nc3cc(F)ccc3cc2CN(C(=O)c2cccs2)C2CC2)cc1 2.87%
CC1=C(/C=C/C(C)=C/C=C/C(C)=C/C=C/C=C(C)/C=C/C=C(C)/C=C/C2=C(C)CCCC2(C)C)C(C)(C)CCC1 25.3%
O=C(Nc1ccccc1)[C@@H]1CC=C[C@@H]2CCN(Cc3ccc(Cl)c(Cl)c3)C(=O)[C@@H]21 -19.5%
COc1ccc(-n2c(=O)c(-c3ccc(Cl)cc3)nc3cnc(N4CCOCC4)nc32)cc1 -7.87%
COc1ccccc1C(=O)N[C@@H]1c2ccccc2C2(CCN(Cc3cnn(C)c3C)CC2)[C@H]1O 4.37%
CC(C(=O)O)c1ccc(CC2CCCC2=O)cc1 (configuration not stated)
O=C1CC[C@H](O)CCN1CCSc1ccc(Br)cc1 9.2%
CCOC(=O)C[C@H]1c2cc(F)ccc2S(=O)(=O)N1C(C)C 9.98%
Cc1c(C(=O)N(C)C2CCOC2)cnn1-c1ncc2c(n1)-c1ccccc1CCC2 (configuration not stated) 6.04%
Cc1ccccc1C(=O)NC(C)c1nnc2n1CCN(Cc1ccnc3ccccc13)CC2 (configuration not stated) 11.6%
COC(=O)c1c(OCc2cccnc2)cc(=O)n2c1CCN(C(=O)c1cccc(N(C)C)c1)CC2 5.93%
Cc1cccc(CNC(=O)c2cnn(-c3ncc(C)c(-c4ccc(F)cc4)n3)c2C)n1 5.96%
C/C(=C(\CCO)SS/C(CCO)=C(\C)N(C=O)Cc1cnc(C)nc1N)N(C=O)Cc1cnc(C)nc1N -14.4%
CC[C@H]1OC(=O)[C@H](C)[C@@H](O[C@H]2C[C@@](C)(OC)[C@@H](O)[C@H](C)O2)[C@H](C)[C@@H](O[C@@H]2O[C@H](C)C[C@H](N(C)C)[C@H]2O)[C@](C)(O)C[C@@H](C)C(=O)[C@H](C)[C@@H](O)[C@]1(C)O
COC(=O)C1C(O)CC[C@H]2CN3CCc4c([nH]c5ccccc45)C3C[C@H]12 (some centres not stated) 5.5%
CC[C@@H](C(=O)O)[C@@H]1O[C@@H]([C@@H](C)[C@H](O)[C@H](C)C(=O)[C@H](CC)[C@H]2O[C@]3(C=C[C@@H](O)[C@]4(CC[C@@](C)([C@H]5CC[C@](O)(CC)[C@H](C)O5)O4)O3)[C@H](C)C[C@@H]2C)[C@@H](C)C[C@@H]1C 13.3%

Reference: PubChem BioAssay AID1645882 (National Center for Advancing Translational Sciences (NCATS), 2021)
